Source: patent US8586634B2, “Therapeutic compounds” (University of Florida Research Foundation, Inc., priority 2007, dated 2013)
pKi: −log10 of the molar value.

Assays:
[1] = system: cocaine self-administration; conditions: rat; cited from earlier work
[2] = biological target: T1, 5HT2B receptors (Homo sapiens, UniProt P41595); assay: PLC/[3H]-IP formation in transfected HEK cells (CHO cells in Example 10), agonism and antagonism of 5-HT; assay type: cell-based
[3] = biological target: 5-HT2A receptors (Homo sapiens, UniProt P28223); assay: PLC/[3H]-IP formation in transfected CHO cells (agonism and antagonism of 5-HT); assay type: cell-based; conditions: listed as PAT
[4] = biological target: T1, 5HT2B receptors; assay: Radioreceptor competition binding, [3H]-mesulergine, membranes of transfected CHO-K1 cells

T1 sequence (P41595 whole entry): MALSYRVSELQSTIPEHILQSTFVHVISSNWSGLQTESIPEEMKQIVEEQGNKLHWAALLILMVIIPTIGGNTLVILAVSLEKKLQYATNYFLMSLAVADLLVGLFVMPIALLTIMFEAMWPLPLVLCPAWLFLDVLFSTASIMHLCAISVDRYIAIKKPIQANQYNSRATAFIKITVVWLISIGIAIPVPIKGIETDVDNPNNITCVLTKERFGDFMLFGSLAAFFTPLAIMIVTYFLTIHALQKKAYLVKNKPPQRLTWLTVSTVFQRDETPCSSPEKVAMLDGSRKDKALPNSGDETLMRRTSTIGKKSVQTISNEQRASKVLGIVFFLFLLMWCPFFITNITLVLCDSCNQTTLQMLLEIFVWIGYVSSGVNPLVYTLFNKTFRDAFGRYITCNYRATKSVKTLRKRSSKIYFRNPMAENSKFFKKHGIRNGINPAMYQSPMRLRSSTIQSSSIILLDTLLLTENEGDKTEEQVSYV
Chain of UniProt P28223 (P28223 whole entry): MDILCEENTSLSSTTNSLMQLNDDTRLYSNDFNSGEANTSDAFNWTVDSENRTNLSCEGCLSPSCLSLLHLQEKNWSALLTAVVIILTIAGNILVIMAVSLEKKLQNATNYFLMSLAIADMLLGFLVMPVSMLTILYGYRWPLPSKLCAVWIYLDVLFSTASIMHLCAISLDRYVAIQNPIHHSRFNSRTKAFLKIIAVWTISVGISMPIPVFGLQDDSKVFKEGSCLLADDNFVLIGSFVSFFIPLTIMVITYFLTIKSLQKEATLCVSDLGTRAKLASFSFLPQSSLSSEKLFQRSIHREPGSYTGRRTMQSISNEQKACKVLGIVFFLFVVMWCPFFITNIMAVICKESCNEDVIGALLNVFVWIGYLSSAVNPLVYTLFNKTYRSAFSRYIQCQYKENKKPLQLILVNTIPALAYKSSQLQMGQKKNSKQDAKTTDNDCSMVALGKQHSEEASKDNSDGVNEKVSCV

COc1cccc([C@H](O)C2CCN(CCc3ccc(F)cc3)CC2)c1OC [M100907]
responding rate for cocaine self-administration [1]: does not alter

CN(C)[C@@H]1Cc2ccccc2[C@@H](c2ccccc2)C1 (relative stereo) [PAT 1, (1R,3S)-(−)-Trans-1-phenyl-3-N,N-dimethylamino-1,2,3,4-tetrahydronaphthalene]
blockade of 5HT-mediated stimulation of PLC/IP formation at 5HT2B ([2]; (−)-trans-PAT 1.0 μM): did not achieve full blockade
blockade of 5HT-mediated stimulation of PLC/IP formation at 5HT2B ([2]; (−)-trans-PAT 10 μM vs 5HT 1.0 μM): did not surmount the blockade
activation of PLC/IP formation at 5HT2B (agonism) ([2]; CHO cells, even at 10 μM): did not activate
functional activity at 5HT2B receptors ([2]; listed as PAT): antagonist
functional activity at 5HT2A receptors [3]: antagonist
5HT2B affinity lower than at 5HT2C receptors ([4]; Ki ratio 5HT2B vs 5HT2C): 20 fold
pKi ([4]; read-out: 5HT2B affinity Ki, Example 9 1f): ~6.00

Cc1cc2c(cc1Cl)N(C(=O)Nc1ccc(Oc3cccnc3C)nc1)CC2 [SB242084]
responding rate for cocaine self-administration [1]: increases
